# PMC4336329 (PLoS ONE, 2015)
# Among all 310,000 compounds or so, about 14,000 (4.5%) showed an effect of 50% or more. The effect is printed as a negative number. Some of the results follow.
# Biological target: human ether-à-go-go-related gene (hERG) potassium channel (human, UniProt Q12809)
# Experiment: primary screen, population patch clamp on CHO cells stably expressing hERG
# 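Also: peak tail current of the secondary pulse compared with the same well before compound.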
# Sequence of human ether-à-go-go-related gene (hERG) potassium channel (Q12809 whole entry, looked up): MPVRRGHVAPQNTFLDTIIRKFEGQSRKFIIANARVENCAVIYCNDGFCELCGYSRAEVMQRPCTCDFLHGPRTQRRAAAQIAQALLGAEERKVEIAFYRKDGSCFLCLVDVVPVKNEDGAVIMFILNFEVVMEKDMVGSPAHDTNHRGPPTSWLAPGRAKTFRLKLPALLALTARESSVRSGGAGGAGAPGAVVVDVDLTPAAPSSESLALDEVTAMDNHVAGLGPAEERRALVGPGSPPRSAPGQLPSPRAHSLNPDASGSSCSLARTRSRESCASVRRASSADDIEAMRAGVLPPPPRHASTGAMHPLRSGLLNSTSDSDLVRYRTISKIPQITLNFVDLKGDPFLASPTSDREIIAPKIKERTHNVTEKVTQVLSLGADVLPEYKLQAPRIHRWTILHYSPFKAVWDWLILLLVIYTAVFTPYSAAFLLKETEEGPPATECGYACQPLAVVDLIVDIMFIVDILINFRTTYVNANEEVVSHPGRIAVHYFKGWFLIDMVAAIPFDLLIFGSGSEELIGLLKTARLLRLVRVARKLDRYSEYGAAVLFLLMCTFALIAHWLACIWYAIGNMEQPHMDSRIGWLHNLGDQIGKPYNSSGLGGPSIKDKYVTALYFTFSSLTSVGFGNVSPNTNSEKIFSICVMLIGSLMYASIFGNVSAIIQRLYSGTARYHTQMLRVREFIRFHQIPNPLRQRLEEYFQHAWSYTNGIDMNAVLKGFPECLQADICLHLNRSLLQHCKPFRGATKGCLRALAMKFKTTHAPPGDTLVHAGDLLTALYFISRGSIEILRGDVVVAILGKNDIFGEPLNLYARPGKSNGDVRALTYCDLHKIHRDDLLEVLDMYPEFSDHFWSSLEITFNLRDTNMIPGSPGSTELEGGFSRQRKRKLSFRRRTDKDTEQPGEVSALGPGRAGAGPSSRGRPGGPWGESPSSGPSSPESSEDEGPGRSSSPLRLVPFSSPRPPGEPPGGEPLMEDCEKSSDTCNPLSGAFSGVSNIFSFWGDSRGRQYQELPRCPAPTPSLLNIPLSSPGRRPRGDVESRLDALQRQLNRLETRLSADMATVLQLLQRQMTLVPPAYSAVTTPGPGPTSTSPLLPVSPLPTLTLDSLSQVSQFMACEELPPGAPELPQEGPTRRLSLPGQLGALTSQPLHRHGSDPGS
row,Compound,"hERG current change (%, negative = inhibition) at 10uM"
1,CCCOc1ccc(C2/C(=C(/O)c3ccc(F)cc3)C(=O)C(=O)N2CCCN(C)C)cc1 (stereo not drawn),15.3%
2,COc1cc(C2N(c3ccc(Cl)c(Cl)c3)C(=O)C3CCCN32)cc(OC)c1OC (stereo not drawn),-4.29%
3,COc1cccc(-c2csc(N3CCN(C(=S)Nc4ccccc4)CC3)n2)c1,-12.4%
4,Cc1ccccc1OC(C)C(=O)Nc1ccc(S(=O)(=O)Nc2nccs2)cc1 (stereo not drawn),-6.84%
5,CC1CCc2c(sc3nc(C4CC4)nc(N4CCN(C(=O)c5ccco5)CC4)c23)C1 (stereo not drawn),-19.2%
6,COc1ccccc1NS(=O)(=O)c1cc(NC(=O)c2cccs2)ccc1N1CCCCC1,5.33%
7,C[N+]1(C)[C@@H]2CC[C@H]1CC(OC(=O)[C@@H](CO)c1ccccc1)C2.[I-] (stereo partly drawn),23.4%
8,Cc1cc(=O)n2[nH]c(N)c(N=Nc3ccccc3F)c2n1,-1.94%
9,Cc1nc2ccc(S(=O)(=O)NC(C(=O)Nc3nccs3)C(C)C)cc2s1 (stereo not drawn),-0.0763%
10,Cc1ccc(Oc2ccc(C=O)cn2)cc1,0.0363%
11,COc1cccc(CN2C(=O)Nc3ccccc3C(=O)N2C(C)(C)C)c1,4.28%
12,CN1CCN(C(=O)N(c2ccccc2)c2ccccc2)CC1.Cl,11.5%
13,COc1cccc(CNc2ccc3[nH]c(=O)[nH]c3c2)c1OCc1ccc(F)cc1,2.63%
14,N#CCCN(CCC#N)c1nncs1,-6.4%
15,Cc1ccc2oc(=O)c3cc(C(=O)NCCN4CCc5ccccc5C4)sc3c2c1,-10.8%
16,NC(=O)C1(N2CCCCC2)CCN(CC(=O)Nc2ccccc2-c2ccccc2)CC1,14.6%
17,CC(C)(C)C1CCC(=O)N(CCOc2ccccc2)CC1 (stereo not drawn),-18.5%
18,CC(NC(=O)Oc1ccccc1)C(c1cccs1)N1CCOCC1 (stereo not drawn),-7.42%
19,Cc1ccc(NC(=O)CNc2cccc(C)c2C)c(C)c1,5.53%
20,COC(=O)C1=C(c2ccc(F)cc2OCc2ccccc2)C[C@@H]2CC[C@H]1N2C(=O)NCC1CC1,-51.5%
21,C[N+](C)(C)CCCCCCC(=O)/C=N/O.[I-],12.1%

row,Compound,"hERG current change (%, negative = inhibition) at 10uM"
1,CCOc1ccc(CCNC(=O)c2cccs2)cc1OCC,6.69%
2,CCCn1nc2cc(C(=O)NC3CCCc4ccccc43)ccc2c1OCC (stereo not drawn),-8.93%
3,Cc1ccc(-c2nnc(SC(C)C(=O)NCC3CCCO3)nc2-c2ccc(C)cc2)cc1 (stereo not drawn),-36%
4,Cc1onc(-c2c(Cl)cccc2Cl)c1COC(=O)c1ccc(Cl)cc1[N+](=O)[O-],16.1%
5,CC(C)c1ccc(NC(=O)C2CC(=O)N=C(N)S2)cc1 (stereo not drawn),4.8%
6,CNC(=O)c1cc2cccc(OC)c2oc1=O,10.7%
7,CC(NC(=O)Cc1ccccc1F)c1ccc(F)cc1 (stereo not drawn),6.9%
8,CCCc1nc2c(nnn2Cc2ccccc2F)c(=O)[nH]1,4.74%
9,COc1ccc(N2CCN(C(=O)CSc3ncnc4c3cnn4-c3ccccc3C)CC2)cc1,10.8%
10,CCOc1ccc(NS(=O)(=O)c2ccc(C(=O)NCC(C)(C)N3CCOCC3)cc2)cc1,-10.3%
11,CC(C)CN1CCC(=O)N(CCSc2ccc(Br)cc2)CC1,-61.3%
12,Cc1ccc(C)c(C(=O)COC(=O)CNS(=O)(=O)c2ccccc2)c1,6.9%
13,COc1ccccc1CN(CC(=O)NCc1ccco1)C(=O)CNS(=O)(=O)c1ccc(C)cc1,-13.9%
14,CN(CCc1ccccc1)Cc1c[nH]c2ccccc12.O=C(O)C(=O)O,-56.7%
15,N#C/C(=C\c1ccc(N2CCOCC2)o1)C(=O)Nc1ccc(O)cc1,-1.18%
16,Cc1cc2oc(C(=O)NCCc3ccc(S(N)(=O)=O)cc3)c(C)c2cc1C,29.1%
17,Cc1nc(NC(=S)Nc2ccccc2)sc1C,11.9%
18,COc1ccccc1N(C(=O)c1ccco1)C(C(=O)NC1CCCC1)c1cccs1 (stereo not drawn),1.33%
19,O=C(NCCC1=CCCCC1)C1CC(=O)N(C2CCCCCC2)C1 (stereo not drawn),6.77%
20,CCCNC(=O)N1CCC(n2nccc2NC(=O)CCOc2ccccc2)CC1,6.12%
21,COc1ccccc1OCCNC(=O)c1c(-c2ccccc2Cl)noc1C,8.43%

row,Compound,"hERG current change (%, negative = inhibition) at 10uM"
1,O=C(CN(Cc1ccccc1)S(=O)(=O)c1ccc2c(c1)OCCO2)Nc1ccc2c(c1)OCCO2,-7.83%
2,COc1ccc([C@@H]2[C@@H]3C(=O)N(C(C)(C)C)C(=O)[C@@H]3[C@]3(C)C(=O)N(c4ccc(C)cc4)C(=O)N23)cc1,-13.9%
3,CC(C)(C)N1C(=O)c2ccc(C(=O)Nc3ccc(O)cc3)cc2C1=O,2.05%
4,CCOCCCNC(=O)CCCn1nc(C)n2c(cc3sccc32)c1=O,-9.92%
5,CCOC(=O)c1nnn(-c2nonc2N)c1COc1ccc(F)cc1,-36.6%
6,CC1(C)OC(=O)C(=CNc2ccccn2)C(=O)O1,-18.8%
7,CC(C)(C)c1nc2scc(-c3ccc(Br)cc3)c2c(=O)o1,7.26%
8,CC(C)(C)C(=O)Nc1ccc(C(=O)N/N=C/c2ccccc2OC(=O)c2ccc(Cl)cc2Cl)cc1,3.58%
9,Cn1cc(S(=O)(=O)Nc2ccc(OC(F)(F)F)cc2)c(=O)n(C)c1=O,15.2%
10,COc1cc(CC(=O)NC(c2ccccc2)c2ccccc2)cc(OC)c1OC,11.1%
11,O=C(CNS(=O)(=O)c1ccc2c(c1)OCCCO2)N1CCN(Cc2ccccc2)CC1,2.63%
12,CC(C)CC(CO)N1CCN(C(=O)c2ccc(Cl)cc2)CCC1=O (stereo not drawn),-12.5%
13,C/C(=C\c1ccccc1)C(=O)Nc1ccc(S(=O)(=O)Nc2ncccn2)cc1,22.8%
14,O=C(O)C1CC=CCC1C(=O)NCCc1ccccc1 (stereo not drawn),13%
15,N=c1oc2ccc3ccccc3c2cc1-c1nnc2n1CCCCC2,-6.3%
16,COC(=O)C1C(=O)/C(=C/N(C)C)C(=O)CC1(C)C (stereo not drawn),13.8%
17,CN1CCN(C(c2ccc(Br)cc2)c2cc(Cl)c3cccnc3c2O)CC1 (stereo not drawn),-4.18%
18,CCOC(=O)C1=CN(Cc2ccc(OC)cc2)C=C(C(=O)OCC)C1c1cccs1,2.56%
19,CC1(C)CC(=O)C(C(c2cccnc2)C2C(=O)CC(C)(C)CC2=O)C(=O)C1,0.265%
20,Cc1c(NC(=O)c2cccs2)cccc1NC(=O)c1cccs1,9.71%
21,Cc1ccc(C(=O)Nc2ccc(C)c(S(=O)(=O)N(C)C)c2)s1,5.28%

row,Compound,"hERG current change (%, negative = inhibition) at 10uM"
1,CCN(CC)S(=O)(=O)c1ccc(N2CCN(C)CC2)c(NC(=O)CSCC(=O)Nc2cccc(C)c2)c1,-13%
2,CCN1CCN(c2ccc(S(=O)(=O)N3CCOCC3)cc2NC(=O)/C=C/c2ccc(OC)c(OC)c2)CC1,10.4%
3,COc1cc(OC)cc(C(=O)NCC(=O)NCCN2C(=O)S/C(=C\c3ccccc3Cl)C2=O)c1,-12.1%
4,CC1CN(Cc2ccccc2)c2nc3c(c(=O)n(C)c(=O)n3C)n2C1 (stereo not drawn),-36.1%
5,CN(C)c1ccc(/C=N/NC(=O)CN(c2ccccc2Cl)S(C)(=O)=O)cc1Br,-7.83%
6,O=C(Nc1cccnc1)c1cc(-c2ccccc2O)on1,11%
7,CCc1ccc(OCC(=O)NNC(=O)c2cc(S(=O)(=O)N3CCOCC3)ccc2N2CCCC2)cc1,-48.2%
8,CCOc1ccc(-n2c([S-])c(C(=O)Nc3ccc(S(=O)(=O)N4CCOCC4)cc3)[n+]3cc(C(N)=O)ccc23)cc1,0.433%
9,CCOc1ccc(S(=O)(=O)NCc2ccccc2)cc1C(N)=O,18.9%
10,Cc1cccc(C)c1NC(=O)CS(=O)CC(=O)Nc1ccc(F)cc1F (stereo not drawn),15.6%
11,O=C(c1cc(N2C(=O)C3C4CCC(C4)C3C2=O)ccc1Cl)N1CCN(c2ccccc2)CC1 (stereo not drawn),-8.33%
12,Cc1cccc(NC(=S)N2CCC(C(=O)c3ccc(F)cc3)CC2)c1C,-3.2%
13,CCOC(=O)C1C(=O)N(C(=O)c2cncc(Br)c2)CC1c1ccccc1 (stereo not drawn),-2.41%
14,COc1ccc(-c2nc(C#N)c(NCC3CCCO3)o2)cc1OC (stereo not drawn),6.28%
15,CSCCC(NC(=O)c1ccccc1)C(=O)NCC(C)(C)N1CCOCC1 (stereo not drawn),-2.85%
16,O=C(c1ccco1)N1CCN(C(=O)c2ccc(CS(=O)c3cccc(Cl)c3)o2)CC1 (stereo not drawn),-14%
17,COCCn1c(=S)[nH]c2cc(C(=O)N3CCc4ccccc4C3)ccc2c1=O,6.97%
18,CCCc1nc2oc3c(NCCN(C)C)ncnc3c2c2c1CCCC2,-32.8%
19,CN(NC(=O)c1ccc(Cl)cc1)c1nc(-c2ccccc2)nnc1C(F)(F)F,6.67%
20,Cc1c(C(=O)N2CCCCC2)oc2ccc(S(=O)(=O)N3CC(C)CC(C)C3)cc12 (stereo not drawn),0.372%
21,CCOc1ccccc1N(C)S(=O)(=O)c1ccc2[nH]cc(C(=O)N(CCOC)CCOC)c(=O)c2c1,9.78%
